The other results are listed elsewhere or left out.

This assay concerns HSkMC (human skeletal muscle cells). Kind of assay: cytotoxicity call (relative viability < 0.9). The conditions noted are these: 10 µM.
On to `Cc1ccc(S(=O)(=O)Nc2ccc3c(c2)C(=O)N([C@@H](C)CO)C[C@@H](C)[C@@H](CN(C)Cc2ccc(C(=O)O)cc2)OCCCC[C@H](C)O3)cc1`, for which the cytotoxicity call is “inactive”. In the case of `C[C@H](CO)N1C[C@H](C)[C@H](CN(C)C)Oc2cc(C#CCN(C)C)ccc2S1(=O)=O`, the cytotoxicity call was “inactive”.

In the case of `Nc1nc(F)nc2c1ncn2[C@@H]1O[C@H](COP(=O)(O)O)[C@@H](O)[C@@H]1O`, the cytotoxicity call was “inactive”.

`COc1ccc(S(=O)(=O)Nc2ccc3c(c2)CC(=O)N([C@H](C)CO)C[C@H](C)[C@@H](CN(C)S(=O)(=O)c2ccccc2)O3)cc1`: the cytotoxicity call was “inactive”.

On to `C[C@H]1CN([C@@H](C)CO)S(=O)(=O)c2ccc(C#Cc3ccccc3)cc2O[C@H]1CN(C)S(=O)(=O)c1ccccc1F`, for which the cytotoxicity call is “inactive”. Under `C[C@@H]1CN([C@@H](C)CO)C(=O)c2cc(NC(=O)CCC(F)(F)F)ccc2O[C@@H](C)CCCCO[C@@H]1CN(C)S(=O)(=O)c1ccc(Cl)cc1` stands “inactive”. In the case of `C[C@@H]1CN([C@@H](C)CO)C(=O)c2cc(NC(=O)Nc3ccc(C(F)(F)F)cc3)ccc2O[C@@H](C)CCCCO[C@@H]1CN(C)S(=O)(=O)c1cccs1`, the cytotoxicity call was “inactive”.

As to `CC(=O)C1CCC2C3CC(C)C4=CC(=O)CCC4(C)C3C(O)CC12C` (centres undefined), the cytotoxicity call is “inactive”. With `CCCCCCc1nc(-c2ccc(-c3ccc(Cl)c(Cl)c3)o2)cc2c1[Si](C(C)C)(C(C)C)OC2`, the cytotoxicity call was “active”.

Values taken from the antibiotic and cytotoxicity screens of Wong et al. (2023).
